Measurements: PubChem BioAssay AID652104 (National Center for Advancing Translational Sciences (NCATS), 2013)
In all, about 410,000 compounds went through this assay and about 7,200 (1.8%) were called active. The inconclusive results got no clear call from the source; some entries with a clear call stand among them for comparison. The call rests on the fitted dose curve; in most records, active means well fitted activation curve with a large enough effect; inconclusive means small, poorly fitted or top-dose-only effect, or another doubt; inactive means no such curve, though single readings can be large or run the other way. Potencies of inconclusive entries are left out as doubtful fits.

Assay: qHTS of TDP-43 Inhibitors; further: nearly all actives have a fitted effect of over 50% in size; on growth rescue (activation): % of control where 0% means no effect
Details: TDP-43 expressing yeast growth rescue, BacTiter-Glo, 24 h; growth rescue (activation): at 46.1 µM (top of the series) unless noted
How it was run: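 Yeast cells expressing TDP-43 under galactose induction are exposed to compounds for 24 hr at 30 deg C. BacTiter-Glo luminescence measures growth, so protective compounds score as activators.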
Potency means the concentration at half of the fitted maximal effect; tags describe the fitted curve by direction and shape.

| SMILES | Potency | growth rescue (activation) |
| --- | --- | --- |
| O=C(Nc1c(C(=O)Nc2cccc(F)c2)oc2ccccc12)c1cc2ccccc2o1 | inconclusive [activator, partial curve] |  |
| O=C(Cn1cc(C(=O)C2CCCCC2)c2ccccc21)NCC1CCCO1 (centres undefined) |  | inactive: -11.6% [at 9.22 µM] |
| FC(F)(F)c1cccc(Cn2nnnc2-c2cc(Cl)cc(Cl)c2)c1 | inconclusive [activator, single point] |  |
| N#Cc1ccccc1Cn1c(=O)n(Cc2ccc(C(=O)NC3CCN(Cc4ccccc4)CC3)cc2)c(=O)c2ccccc21 | inconclusive [activator, full curve, poor fit] |  |
| COc1ccc(/C=C2\N=C(C)N(c3ccc(C(=O)O)cc3)C2=O)cc1OC | inconclusive [activator, partial curve, poor fit] |  |
| CSc1ccc(CCNC(=O)C2CCN(c3nnc(-n4cccc4)s3)CC2)cc1 | inactive |  |
| N#CC1(NC(=O)CSc2n[nH]c(-c3ccccc3)n2)CCCCC1 | inconclusive [activator, partial curve, poor fit] |  |
| CCC(c1nnnn1-c1ccc2c(c1)OCCO2)N1CCN(c2ccc(C(F)(F)F)cn2)CC1 (centres undefined) | active: 22.4 µM |  |
| COC(=O)[C@]1(Cc2ccccc2)N[C@H](CN(C)S(=O)(=O)c2ccc(C(C)(C)C)cc2)[C@@H]2C(=O)N(C)C(=O)[C@@H]21 | inconclusive [activator, full curve, poor fit] |  |
| CCOC(=O)C(C)On1c(-n2nc(C)cc2C)nc2ccccc2c1=O (centres undefined) | inconclusive [activator, single point] |  |
| Cc1cc(/C=C(\C#N)C(=O)NCc2ccco2)c(C)n1C1CCCC1 | inconclusive [activator, single point] |  |
| N/C(=N\OC(=O)CCC1CCCC1)c1cccnc1 | inconclusive [activator, partial curve] |  |
| C/C=C/Cn1c(SCCCc2ccccc2)nc2c1c(=O)[nH]c(=O)n2C | inconclusive [activator, single point] |  |
| OC(c1cccc(Cl)c1)c1nc(-c2cc3ccccc3o2)cs1 (centres undefined) | active: 35.5 µM |  |
| Cc1cc(=O)[nH]c(N/N=C/c2ccccc2C(F)(F)F)n1 | inactive |  |
| CC(C)Cn1c(N)c(C(=O)COC(=O)c2c(O)c(Cl)cc(Cl)c2Cl)c(=O)n(C)c1=O | active: 25.1 µM |  |
| CCNc1nc(NCC)nc(N/N=C/c2ccc(Br)cc2)n1 | inconclusive [activator, full curve, poor fit] |  |
| COc1ccccc1CNc1nc(Oc2cccc(F)c2)c2sccc2n1 | active: 35.5 µM |  |
| COC(=O)c1ccccc1Oc1ccc(NC(=O)CCCl)cc1 | inconclusive [activator, single point] |  |
| O=C(CCNc1ccc(Cc2ccncc2)cc1)c1cccc([N+](=O)[O-])c1 | inconclusive [activator, single point] |  |
| NC(=O)N/N=C/C=C/c1ccccc1 | active: 3.98 µM |  |
| O=C(CSc1ncc(CO)n1Cc1ccccc1)Nc1ccc(C(F)(F)F)cc1 | inactive |  |
| CCOc1ccc2nc(N3CCCC(C(=O)NCc4ccccc4Cl)C3)sc2c1 (centres undefined) | inconclusive [activator, full curve, poor fit] |  |

| SMILES | Potency | growth rescue (activation) |
| --- | --- | --- |
| N#C/C(=C\c1c(F)cccc1Cl)C(=O)NC1CC1 | active: 12.6 µM |  |
| CN(CC(=O)Nc1ccccc1Br)C(=O)c1cc2c(s1)CCCCC2 | active: 17.8 µM |  |
| ON=C(c1ccccc1)c1ccc2c3c(cccc13)CC2 | inconclusive [activator, partial curve] |  |
| COc1ccc(C=O)cc1COc1ccc2c(c1)OCO2 | active: 14.1 µM |  |
| O=C(NCc1ccccc1)C1CCN(C(=O)c2cnn(-c3ccccc3)c2-n2cccc2)CC1 | inactive |  |
| Fc1ccc(/C=N/NC(=S)Nc2ccc(Cl)cc2)cc1F | inconclusive [activator, partial curve] |  |
| COc1cccc(-c2c(-c3ccccc3OC)ncn2Cc2cccc(-c3ccccc3)c2)c1 | inconclusive [activator, single point] |  |
| COC(=O)c1sccc1NC(=O)Nc1ccc(C)cc1 | inconclusive [activator, single point] |  |
| Cc1ccc(Cl)cc1-c1cc(C(=O)NCc2cccc(Cl)c2)[nH]n1 | inconclusive [activator, single point] |  |
| CCCCCNC(=O)C(CCc1ccccc1)n1c(=O)c(-c2cc3ccccc3[nH]2)nc2ccccc21 (centres undefined) | inconclusive [activator, partial curve, poor fit] |  |
| Cn1c(C23CC4CC(CC(C4)C2)C3)n[nH]c1=S | inconclusive [activator, single point] |  |
| O=C(COC(=O)c1c(Cl)cccc1Cl)NC1CCCCCCC1 | inconclusive [activator, partial curve] |  |
| CCCCC1CC2=C(C(=O)OC(C)(C)O2)C(c2cccc3ccccc23)O1 (centres undefined) | inconclusive [activator, single point] |  |
| C/C=C/C=C/C(=O)OC(C)C(=O)Nc1cc([N+](=O)[O-])ccc1OC (centres undefined) | active: 12.6 µM |  |
| CCc1ccc(NC(=O)c2cnc3scc(C)n3c2=O)cc1 | inconclusive [activator, full curve] |  |
| CCN(C(C)=O)c1nc(CSc2nnc(NC(C)C)s2)cs1 | inactive |  |
| CC(C)Cn1c(-c2ccc(Br)o2)n[nH]c1=S | inconclusive [activator, partial curve] |  |
| COc1ccc(CNc2nc(-c3cccnc3)nn2C(=O)CC(C)C)cc1 | inconclusive [activator, single point] |  |
| Cc1ccc(S(=O)(=O)C2C(=O)NC3(C)CC2c2ccccc2O3)cc1 (centres undefined) | inconclusive [activator, partial curve] |  |
| COC(=O)C1(C(=O)OC)C2CCCCC2N(S(=O)(=O)c2ccc(C)cc2)[C@@H]1CC(C)=O (some centres undefined) | inactive |  |
| CC1=C(c2ccc(Cl)cc2)S(=O)(=O)N=C1N1CCN(c2cccc(C(F)(F)F)c2)CC1 | inactive |  |
| CCOC(=O)/C=C/C(=O)OCC(=O)Nc1ccc([N+](=O)[O-])cc1 | active: 14.1 µM |  |
| COc1ccc(OCCC(=O)OCC(=O)NCc2ccco2)cc1 | inactive |  |

| SMILES | Potency | growth rescue (activation) |
| --- | --- | --- |
| COc1ccc(NC2CC(=O)N(c3cccc([N+](=O)[O-])c3)C2=O)cc1 (centres undefined) | inconclusive [activator, partial curve] |  |
| CCOC(=O)c1sc2ccccc2c1S(=O)(=O)NCc1ccc(F)cc1 | inactive |  |
| CCCCSc1nnc2c(n1)OC=Nc1ccccc1-2 | inconclusive [activator, single point] |  |
| Cc1occc1C(=O)N/N=C/c1ccc(OCc2ccccc2)cc1 | inconclusive [activator, partial curve] |  |
| N/C(=N\OC(=O)CCCOc1ccc(Cl)cc1Cl)c1ccncc1 | inconclusive [activator, partial curve] |  |
| COc1ccc(/C(N)=N/OC(=O)c2cccs2)cc1 | active: 15.8 µM |  |
| CC(Oc1ccccc1)C(=O)Nc1cccc([N+](=O)[O-])c1 (centres undefined) | inconclusive [activator, partial curve] |  |
| CCC(C(=O)Nc1cccc(C(F)(F)F)c1)c1ccccc1 (centres undefined) | inconclusive [activator, single point] |  |
| O=C(O)c1ccccc1Nc1ccc([N+](=O)[O-])cc1 | inconclusive [activator, single point] |  |
| COc1ccccc1CNC(=O)CCC1N=C2c3ccccc3N=C(SCc3ccccc3Cl)N2C1=O (centres undefined) | inconclusive [activator, single point] |  |
| CCOc1ccc(CCNC(=O)COC(=O)/C=C/c2ccco2)cc1OCC | inconclusive [activator, partial curve] |  |
| CNc1cc(-c2cc(OC)ccc2OC)ncn1 | inactive |  |
| O=C(Nc1c(C(=O)Nc2cccc(C(F)(F)F)c2)oc2ccccc12)c1cc(=O)c2ccccc2o1 | inconclusive [activator, full curve, poor fit] |  |
| O=c1c2ccccc2c2ccccc2c(=O)n1Cc1ccco1 | inconclusive [activator, partial curve] |  |
| O=[N+]([O-])c1ccc(N2CCN(c3ccc(O)cc3)CC2)c(Cl)c1 | inconclusive [activator, partial curve] |  |
| Cc1ccc(-n2nnnc2CNC(=O)c2ccccc2F)cc1C | inconclusive [activator, partial curve] |  |
| Cc1ccc2nc(N3CCN(C(=O)c4ccccc4F)CC3)c(C#N)cc2c1 |  | inconclusive: 165% [activator] |
| Oc1ccc2ccccc2c1C=NNc1ccccn1 | inconclusive [activator, single point] |  |
| C=CCN1C(=O)C(C)(C)N(C(C)=O)c2ccccc21 | inactive |  |
| O=C(NCc1ccccc1Cl)c1ccc(CSCc2cccc(F)c2)o1 | inconclusive [activator, partial curve] |  |
| O=C(Nc1nnc(S(=O)(=O)N2CCCCCC2)s1)c1ccccc1Cl | inconclusive [activator, full curve] |  |
| COc1cccc(C(=O)O/N=C(\N)c2ccccn2)c1 | inconclusive [activator, single point] |  |
| COc1cccc(/C=C2\SC(=S)N(CCCC(=O)N3CCCCC3CCO)C2=O)c1 (centres undefined) | inactive |  |
